# From PubChem BioAssay AID504339 (National Center for Advancing Translational Sciences (NCATS), 2011)
# Among all 390,000 compounds or so, about 17,000 (4.4%) were called active. Inconclusive results, whose numbers are uncertain, are shown with a selection of clear calls. The call rests on the fitted dose curve; in most records, active means well fitted inhibition curve with a large enough effect; inconclusive means small, poorly fitted or top-dose-only effect; inactive means no such curve, though single readings can be large or run the other way. Where the call is inconclusive, the potency comes from a doubtful curve fit.
# Target: Lysine-specific demethylase 4A (Homo sapiens) (UniProt O75164)
# Test: qHTS Assay for Inhibitors of JMJD2A-Tudor Domain; further: nearly all actives have a fitted effect of over 50% in size
# Conditions: AlphaScreen JMJD2A-Tudor / H3K4me3 peptide binding; activity change, negative = inhibition: at 114 µM (top of the series)
# On the % scale 0 is the no-effect control and ±100 the full control effect; potency means the concentration at half of the fitted maximal effect; tags describe the fitted curve by direction and shape.
# Sequence of UniProt O75164 (O75164 whole entry, looked up, the tested form may be a part): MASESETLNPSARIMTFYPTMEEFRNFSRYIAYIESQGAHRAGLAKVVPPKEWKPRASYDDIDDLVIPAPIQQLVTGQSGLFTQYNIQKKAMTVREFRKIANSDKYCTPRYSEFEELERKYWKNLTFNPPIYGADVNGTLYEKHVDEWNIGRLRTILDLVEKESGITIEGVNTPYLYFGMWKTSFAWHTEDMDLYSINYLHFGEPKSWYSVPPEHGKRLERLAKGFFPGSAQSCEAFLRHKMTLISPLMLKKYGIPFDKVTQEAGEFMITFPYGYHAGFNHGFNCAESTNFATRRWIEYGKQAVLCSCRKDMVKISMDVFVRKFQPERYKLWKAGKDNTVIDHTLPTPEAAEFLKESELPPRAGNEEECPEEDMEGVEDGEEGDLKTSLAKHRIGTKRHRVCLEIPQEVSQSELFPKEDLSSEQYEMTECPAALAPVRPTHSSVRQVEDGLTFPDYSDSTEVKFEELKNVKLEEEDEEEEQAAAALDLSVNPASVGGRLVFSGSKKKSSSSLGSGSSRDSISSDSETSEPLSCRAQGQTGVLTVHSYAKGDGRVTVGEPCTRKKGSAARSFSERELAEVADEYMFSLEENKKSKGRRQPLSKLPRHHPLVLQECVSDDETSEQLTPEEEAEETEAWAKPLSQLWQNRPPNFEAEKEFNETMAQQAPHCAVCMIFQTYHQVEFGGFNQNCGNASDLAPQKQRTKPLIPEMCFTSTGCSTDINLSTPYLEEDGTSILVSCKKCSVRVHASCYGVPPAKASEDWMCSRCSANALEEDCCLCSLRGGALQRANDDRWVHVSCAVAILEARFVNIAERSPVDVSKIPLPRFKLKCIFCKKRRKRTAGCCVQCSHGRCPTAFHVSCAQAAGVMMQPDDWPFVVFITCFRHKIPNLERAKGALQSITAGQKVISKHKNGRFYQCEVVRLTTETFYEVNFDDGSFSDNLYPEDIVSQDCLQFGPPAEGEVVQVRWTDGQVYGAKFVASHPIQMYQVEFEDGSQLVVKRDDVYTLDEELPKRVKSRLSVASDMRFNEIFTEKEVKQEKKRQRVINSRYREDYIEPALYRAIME
Compound,Potency,"activity change, negative = inhibition"
COc1ccc(S(=O)(=O)N(CC(=O)N/N=C/c2cccs2)c2cc(C)cc(C)c2)cc1OC,"inconclusive: 56.2 µM [inhibitor, partial curve]",
CCOC(=O)c1ccc(N2CCN(c3ccccc3OC)CC2)c(NC(=O)Nc2ccc(CC)cc2)c1,"inconclusive: 63.1 µM [inhibitor, partial curve, poor fit]",
Cc1[nH]n(-c2cccc3ccccc23)c(=O)c1/C=N/NC(=O)c1cccc([N+](=O)[O-])c1,"inconclusive: 56.2 µM [inhibitor, partial curve]",
Oc1cc2ccccc2cc1-c1n[nH]c(=S)n1Cc1ccco1,"inconclusive: 56.2 µM [inhibitor, partial curve]",
COc1ccc(CN2C(=O)c3c(c(C)n(C)c3C)C2C(=O)NC2CCC(C)CC2)cc1 (configuration not stated),"inconclusive: 89.1 µM [inhibitor, single point]",
CC(C)CC(=O)N1CCN(Cc2ccc(Cl)cc2)CC1,active: 10 µM,
CCOC(=O)c1c(C)noc1-c1ccco1,inactive,
COc1ccccc1NC(=O)Nc1ccccc1SC,inactive,
CCn1cc(C(=O)N2CCN(c3cc(Cl)ccc3C)CC2)c(=O)c2cc(S(=O)(=O)N3CCCC3)ccc21,"inconclusive: 50.1 µM [inhibitor, partial curve, poor fit]",
COc1ccc(NC(=O)NCC(C)CSc2ccc(C)cc2)c(OC)c1 (configuration not stated),"inconclusive: 56.2 µM [inhibitor, partial curve]",
O=C(Nc1ccc2c(c1)OCO2)C1CC1,"inconclusive: 56.2 µM [inhibitor, partial curve]",
O=C(c1cccc(Cl)c1)N1CCN(C2CCCCC2)CC1,active: 7.94 µM,
Cc1coc2cc3oc(=O)c(CCC(=O)N4C[C@H]5C[C@@H](C4)c4cccc(=O)n4C5)c(C)c3cc12,inactive,
CC(=O)C1=C(O)C(=O)N(CCCO)C1c1ccccc1 (configuration not stated),"inconclusive: 89.1 µM [inhibitor, single point]",
COc1cc2nc(SCC(=O)Nc3ccccc3C)n3nc(CCn4c(C)nc5ccccc54)nc3c2cc1OC,"inconclusive: 3.55 µM [inhibitor, full curve]",
C/C(=N\NC(=S)NCc1ccccc1)c1cccs1,"inconclusive: 79.4 µM [inhibitor, partial curve]",
Cc1ccc(-n2c(C)cc(C=C3C(=O)CC(C)(C)CC3=O)c2C)cc1,inactive,
COc1ccc2c(c1)CC/C(=C\Nc1ccc3c(c1)OCO3)C2=O,"inconclusive: 50.1 µM [inhibitor, partial curve]",
COc1ccc(N2CCN(C(=O)CCC(=O)N3CCOc4ccc(C)cc43)CC2)cc1,"inconclusive: 79.4 µM [inhibitor, partial curve]",
COc1cccc(NC(=O)N(CCC(C)C)C2CCN(C(C)C)CC2)c1,inactive,
CN1CCN(c2nnc(-c3ccc(F)cc3)c3ccccc23)CC1,"inconclusive: 89.1 µM [inhibitor, partial curve, poor fit]",

Compound,Potency,"activity change, negative = inhibition"
COc1ccc(N2CCN(C(=O)CSc3nnc(C)c(=O)[nH]3)CC2)cc1,"inconclusive: 89.1 µM [inhibitor, single point]",
C#CCOCCOCCOCCNc1nc(N2CCN(C(=O)[C@H](CO)n3cc([C@@H](N)C(C)C)nn3)CC2)nc(N2CCN(C(=O)[C@H](CCC(=O)O)n3cc([C@@H](N)CCCCN)nn3)CC2)n1,"inconclusive: 79.4 µM [inhibitor, single point]",
Cc1onc(-c2ccccc2Cl)c1C(=O)NCc1ccco1,"inconclusive: 39.8 µM [inhibitor, partial curve]",
CCc1cnc2c(c1SCC(=O)NCc1ccc(C)cc1)c(=O)n(C)c(=O)n2C,inactive,
Cn1c(=O)n(C)c2cc([N+](=O)[O-])c(N3CCN(S(=O)(=O)c4ccccc4)CC3)cc21,"inconclusive: 50.1 µM [inhibitor, partial curve]",
O=C(/C=C/c1ccccc1Cl)Nc1ccccc1,inactive,
CCCOC(=O)/C(=C\C=C\c1ccco1)NC(=O)c1ccccc1,"inconclusive: 44.7 µM [inhibitor, partial curve]",
Cc1nn(-c2ccc(F)cc2)c(-n2cccc2)c1C(=O)NCCCN1CCN(c2cccc(Cl)c2)CC1,"inconclusive: 50.1 µM [inhibitor, partial curve]",
CCN(CC)c1ccc(CNC(=O)C/C(C)=N/NC(=O)COc2ccc(C)cc2Br)cc1,"inconclusive: 12.6 µM [inhibitor, full curve]",
CCCOc1ccc(-c2nc(N)n[nH]2)cc1,"inconclusive: 25.1 µM [inhibitor, partial curve]",
CSc1ccccc1C(=O)C1CCCN(Cc2cnn(-c3ccccc3)c2)C1 (configuration not stated),"inconclusive: 35.5 µM [inhibitor, partial curve]",
N#Cc1nc(-c2ccco2)oc1N1CCC(Cc2ccccc2)CC1,"inconclusive: 11.2 µM [inhibitor, full curve]",
CCC(C)NC(=O)c1cn(-c2cccc(C)n2)cn1 (configuration not stated),inactive,
CCc1ccc(S(=O)(=O)Nc2cccc(-c3ccc(N4CCC(C)CC4)nn3)c2)s1,"inconclusive: 56.2 µM [inhibitor, partial curve]",
CN1CCN(S(=O)(=O)c2ccc(Oc3cccc(C(F)(F)F)c3)nc2)CC1,,inconclusive: -40% [inhibitor]
Oc1ccc(Cl)cc1Nc1nc(NCC2CCCO2)c2ccccc2n1 (configuration not stated),inactive,
O=C(N/N=C/c1ccco1)c1cc(-c2ccncc2)nc2ccccc12,"inconclusive: 79.4 µM [inhibitor, partial curve]",
CCC(Sc1nc2nccnc2c(=O)n1Cc1ccc(F)cc1)C(=O)NC1CCCCC1 (configuration not stated),inactive,
Cc1ccc(OCCN2CCN(C)CC2)c([N+](=O)[O-])c1,active: 3.55 µM,
Cc1cccc2sc(N(CCN(C)C)C(=O)c3cc(Cl)sc3Cl)nc12,"inconclusive: 25.1 µM [inhibitor, full curve]",
COc1ccc2[nH]c(=O)c(CNc3ccccc3OC)cc2c1,"inconclusive: 79.4 µM [inhibitor, partial curve]",
